Measured values taken from PubChem BioAssay AID720709 (National Center for Advancing Translational Sciences (NCATS), 2013).
Hit rate of the full screen: of about 360,000 compounds, about 520 (0.14%) were called active. Inconclusive means that the source gave no clear call. Such entries were picked first, then a sample of the others. Calls follow the shape of the dose curve; as a rule, active = well fitted inhibition curve with a large enough effect; inconclusive = small, poorly fitted or top-dose-only effect; inactive = no such curve, though single readings can be large or run the other way. Where the call is inconclusive, the potency comes from a doubtful curve fit.

The molecules below were run against Rap guanine nucleotide exchange factor 3 (Homo sapiens) (UniProt O95398) (assay: qHTS for Antagonist of cAMP-regulated guanine nucleotide exchange factor 3 (EPAC1): primary screen). Conditions: EPAC1 GEF assay, Rap1b-BODIPY-GDP exchange fluorescence; activity change, negative = inhibition: at 115 µM (top of the series).
Also: nearly all actives have a fitted effect of over 50% in size.
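For activity change, negative = inhibition in this document: plate controls were vehicle for no effect and positive control for full effect.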
Potency is read from the fitted curve at half-maximal effect; tags tell the direction and shape of the fitted curve.

Chain of UniProt O95398 (O95398 whole entry, looked up): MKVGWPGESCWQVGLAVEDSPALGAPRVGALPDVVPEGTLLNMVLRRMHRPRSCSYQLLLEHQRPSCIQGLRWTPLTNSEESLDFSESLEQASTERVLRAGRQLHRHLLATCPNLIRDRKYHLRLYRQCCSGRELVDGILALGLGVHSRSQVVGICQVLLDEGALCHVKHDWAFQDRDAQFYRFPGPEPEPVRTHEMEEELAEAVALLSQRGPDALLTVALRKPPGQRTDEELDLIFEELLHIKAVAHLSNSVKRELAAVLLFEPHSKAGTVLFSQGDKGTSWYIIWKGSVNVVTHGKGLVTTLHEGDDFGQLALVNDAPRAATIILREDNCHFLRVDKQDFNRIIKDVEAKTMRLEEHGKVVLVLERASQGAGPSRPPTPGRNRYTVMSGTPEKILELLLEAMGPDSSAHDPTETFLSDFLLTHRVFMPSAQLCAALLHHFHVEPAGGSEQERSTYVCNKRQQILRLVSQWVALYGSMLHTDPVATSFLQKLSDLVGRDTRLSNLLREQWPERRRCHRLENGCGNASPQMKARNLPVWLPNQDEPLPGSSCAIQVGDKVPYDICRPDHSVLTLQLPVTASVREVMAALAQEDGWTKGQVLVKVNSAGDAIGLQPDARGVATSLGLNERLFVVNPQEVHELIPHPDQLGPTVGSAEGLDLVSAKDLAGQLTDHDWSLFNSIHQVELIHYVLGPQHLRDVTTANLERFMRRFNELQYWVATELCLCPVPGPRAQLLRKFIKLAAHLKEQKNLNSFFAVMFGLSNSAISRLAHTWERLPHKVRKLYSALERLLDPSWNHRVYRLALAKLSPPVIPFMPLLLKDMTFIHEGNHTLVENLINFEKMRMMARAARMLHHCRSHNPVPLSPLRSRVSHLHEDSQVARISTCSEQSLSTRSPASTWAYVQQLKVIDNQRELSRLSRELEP

Potency, inconclusive:
COc1cccc(CSc2nccn2C)c1 3.55 µM [inhibitor, full curve]
CC(C)CC(COCc1cccc(Cl)c1)N1CCN(C(=O)c2cccc(C(F)(F)F)c2)CCC1=O (stereo not drawn) 35.5 µM [inhibitor, partial curve]
COC(=O)c1c(NC(=O)COc2ccc(Cl)cc2)sc2c1CC(C)(C)NC2(C)C 3.55 µM [inhibitor, full curve, poor fit]
CCOC(=O)c1cc(-c2c(Cl)cccc2Cl)no1 25.1 µM [inhibitor, single point]
COc1ccc(OC)c2sc(NC(=O)C3=COCCO3)nc12 25.1 µM [inhibitor, single point]
CC(C)(C)Nc1c2ccccc2nc2ccccc12 15.8 µM [inhibitor, full curve, poor fit]
CCOc1cc(/C=C(/NC(C)=O)C(=O)O)cc(Cl)c1OCc1cccc(Br)c1 100 µM [inhibitor, single point]
COc1ccc(-n2ncc3c2CC(C)(C)CC3NC(=O)CN2CCOC2=O)cc1 (stereo not drawn) 100 µM [inhibitor, partial curve, poor fit]
NS(=O)(=O)c1ccc(NC(=O)c2ccc(-c3ccccc3)cc2)cc1 35.5 µM [inhibitor, partial curve]
O=C(COC(=O)c1ccc(S(=O)(=O)N2CCCC2)cc1)Nc1cccc(Br)c1 2.82 µM [inhibitor, full curve, poor fit]
CCOc1cc(/C=C2\SC(=S)N(C(C(=O)O)c3ccccc3)C2=O)ccc1O (stereo not drawn) 28.2 µM [inhibitor, single point]
Oc1ccccc1C=NNC(=S)NC1CC2C=CC1C2 (stereo not drawn) 3.55 µM [inhibitor, full curve, poor fit]
CC1(C2CCC3C4CCC5CC6(CCC5(C)C4C(=O)CC32C)OCCO6)OCCO1 (stereo not drawn) 3.16 µM [inhibitor, full curve]
Cc1c(Br)c([N+](=O)[O-])nn1CC(=O)N(C)Cc1ccccc1 89.1 µM [inhibitor, single point]
O=C(Cn1cnc2c(NCc3ccccc3)ncnc21)NCCc1cc2ccccc2[nH]1 79.4 µM [inhibitor, partial curve]
COc1ccc(C)cc1NC(=O)c1nnn(Cc2cccc(F)c2)c1N 56.2 µM [inhibitor, partial curve]
Cc1ccccc1C(=O)Nc1ccccc1NC(=O)c1ccccc1Br 112 µM [inhibitor, partial curve]
COC(=O)c1ccc(/C=C/C(=O)c2cccc(OC)c2)cc1 79.4 µM [inhibitor, partial curve]
CC1=NN(c2ccccc2)C(=O)/C1=C/c1c(O)n(-c2ccc(F)cc2)[nH]c1=O 8.91 µM [inhibitor, full curve, poor fit]
O=[N+]([O-])c1cc2oc3c(c2c(C=NCc2ccncc2)c1O)CCCC3 70.8 µM [inhibitor, partial curve]
NS(=O)(=O)c1ccc(N=Nc2ccc(=O)[nH]c2O)cc1 79.4 µM [inhibitor, partial curve]
COc1ccc(S(=O)(=O)N2C(=O)/C(=C3\SC(N)=NC3=O)c3ccccc32)cc1 31.6 µM [inhibitor, partial curve]
COc1cc(/C=N/NC(=O)c2ccc3c(c2)OCCO3)c(Br)c(Br)c1O 112 µM [inhibitor, partial curve, poor fit]
COc1cc(/C=C(/C(=O)c2cccs2)c2nc3ccccc3[nH]2)cc(OC)c1O 39.8 µM [inhibitor, partial curve]
C=CCNC(=S)NNC(=O)c1cc(O)ccc1O 20 µM [inhibitor, full curve, poor fit]
CC/C(=N/NC(=O)c1ccc2c(c1)OCO2)c1ccccc1O 12.6 µM [inhibitor, full curve]

Potency, active:
C/C(=N\NC(=O)c1cc(O)ccc1O)c1cccc(NC(=O)c2ccc(Cl)cc2)c1 50.1 µM

Activity change, negative = inhibition, inconclusive:
Cc1nc2n[nH]c(N)c2c2c1CCCC2 5.9% [inhibitor]
CCN(CC)CCNC(=S)NC(=O)c1cn(-c2ccccc2)nc1-c1ccc(OC)cc1 -30.6% [inhibitor]
CCOC(=O)/C(C#N)=C/c1c[nH]c2ccccc12 -16.9% [inhibitor]
Cc1cc(C(=O)CN2C(=O)C(=O)N(CC(C)C)C2=O)c(C)n1-c1ccccc1F -33.2% [inhibitor]
CCc1nc2ccc(C(=O)NC(C)(C)C)cn2c1N(CC)Cc1cccc(Br)c1 -17.9% [inhibitor]

Activity change, negative = inhibition, inactive:
CN(C)S(=O)(=O)c1cccc(C(=O)Nc2cc(S(=O)(=O)N3CCOCC3)ccc2O)c1 -2.9%
OCCN1CCN(CCCN2c3ccccc3Sc3ccc(C(F)(F)F)cc32)CC1 -15.7%
O=C(c1ccc(Br)o1)N1CCN(c2ccc3nnc(-c4ccccc4)n3n2)CC1 -7.09%
COC(=O)C[C@@H]1CC[C@@H](NS(=O)(=O)c2ccc(F)cc2)[C@@H](CO)O1 -7.33%
O=C(CC1c2ccccc2C=C(c2ccsc2)N1c1ccc(-c2cccnc2)cc1)C1CC1 (stereo not drawn) -4.08%
O=C([O-])c1ccccc1-[n+]1c(-c2ccccc2)cc(-c2ccccc2)cc1-c1ccccc1 15.4%
Cc1cc2c(cc3c(=O)n(CC(=O)NCCCN4CC(C)CC(C)C4)ncn32)s1 (stereo not drawn) -0.243%
CCCCCCCCN1C(=O)[C@H](CC(=O)NCCC(C)C)C[C@@]2(C(=O)OCC)CCC=C12 -11.6%
CC1(C(=O)NS(=O)(=O)c2cccs2)CCN1C(=O)c1ccco1 (stereo not drawn) -7.56%
CCOC(=O)Cn1c(=O)n(Cc2ccccc2)c(=O)c2cccnc21 8.39%
COc1cccc(/C=C2\CCc3ccccc3C2=O)c1 -21.8%
